The results in this text go back to patent US20120183570A1 (WASHINGTON STATE UNIVERSITY, published 2012).

The assay addresses T1, Human plasma fibronectin (Fn) (human, UniProt P02751-9 32-2240, limits assumed).
T1 construct: It is treated as the same molecule; also called full-length Fn
The experiment in a line: ELISA on Fn-coated wells, anti-GST detection.

B1: GST alone (other)
chain: not shown
notes: Negative control in the Fn ELISA
Consider B1, for which the binding result is reported as “no binding”.
